{"source": "ChEMBL document CHEMBL4888484", "about": "“Replenishing the malaria drug discovery pipeline: Screening and hit evaluation of the MMV Hit Generation Library 1 (HGL1) against asexual blood stage Plasmodium falciparum ,using a nano luciferase reporter read-out” (2022)", "note": "The whole screen tested about 150,000 compounds, of which about 540 (0.36%) showed an effect of 50% or more. The list shows a part of the results."}
{"system": "Plasmodium falciparum", "test": "Primary screen in NF54 nanoGlo assay, in single point, at 2uM, 72h; a lower Z score goes with more inhibition", "format": "functional, Erythrocyte", "conditions": "timepoint 72 hour", "units": {"% Inhibition": "%"}}
{"smiles": "Cc1ncc(CNCCn2cc(Br)cn2)c(C)n1", "% Inhibition": -8, "Z score": 1.17}
{"smiles": "Cc1cc(NC(=O)CCN2CCN(S(=O)(=O)c3cccc(F)c3)CC2)no1", "% Inhibition": -13, "Z score": 1.18}
{"smiles": "CC(C)CCNC(=O)N1CCC[C@](C)(c2noc(-c3ccncc3)n2)C1", "% Inhibition": -13, "Z score": 2.07}
{"smiles": "CCc1nc(C)sc1CN1C(=O)COc2cccnc21", "% Inhibition": -15, "Z score": 2.17}
{"smiles": "C[C@H]1CCCN(C(=O)c2cc3ccccc3c(=O)[nH]2)CC1", "% Inhibition": -10, "Z score": 1.5}
{"smiles": "CC(C)c1nnc2sc([C@H]3CC34CCC4)nn12", "% Inhibition": -18, "Z score": 2.42}
{"smiles": "CCOC1CN(C(=O)c2cc(S(N)(=O)=O)ccc2Cl)C1", "% Inhibition": -1, "Z score": 0.24}
{"smiles": "COC(=O)C1CC(O)CN1Cc1ncc(Cl)cc1Cl", "note": "(stereo not given)", "% Inhibition": -16, "Z score": 2.17}
{"smiles": "CN1CCCN(C(=O)[C@H]2CC23CCN(Cc2cccn2-c2ccc(Cl)cn2)CC3)CC1", "% Inhibition": 0, "Z score": 0.06}
{"smiles": "COC(=O)c1cc2ccc(-c3cccc(C(=O)NC[C@@H]4CCCN4)c3)cc2[nH]1", "% Inhibition": 5, "Z score": -0.59}
{"smiles": "Cc1nc(-c2n[nH]c3ccccc23)n(CCO)n1", "% Inhibition": -4, "Z score": 0.74}
{"smiles": "CC(C)(C)CC(=O)NC[C@@H](c1ccsc1)n1cccn1", "% Inhibition": -5, "Z score": 1.09}
{"smiles": "CN(CCC1CCCCC1)S(C)(=O)=O", "% Inhibition": 5, "Z score": -0.59}
{"smiles": "CCC1(CC)C(=O)N(C)C(=O)N=C1N(C)C", "% Inhibition": -1, "Z score": 0.16}
{"smiles": "O=C(N[C@H]1CCCc2[nH]ccc21)c1cc(F)c(F)c(O)c1F", "% Inhibition": 5, "Z score": -0.82}
{"smiles": "CNC(=O)CCC(C)(C)NC(=O)CCc1cccc(O)c1", "% Inhibition": -10, "Z score": 1.45}
{"smiles": "COc1ccc(-n2cc3c(c2-c2ccccc2)c(=O)n(-c2ccccc2)n3C)c(OC)c1", "% Inhibition": -5, "Z score": 0.84}
{"smiles": "CC#CCN(CCc1cccs1)S(=O)(=O)CC", "% Inhibition": -13, "Z score": 1.46}
{"smiles": "FC(F)(F)[C@H]1CCCN(c2nc(-c3cccnc3)nc3ccccc23)C1", "% Inhibition": 8, "Z score": -0.64}
{"smiles": "CCc1nc(-c2ccc(-c3noc(-c4ccc(Br)o4)n3)cc2)cs1", "% Inhibition": -15, "Z score": 1.51}
{"smiles": "CCOC(=O)NC[C@H](OC)c1ccsc1", "% Inhibition": -12, "Z score": 1.51}
{"smiles": "CC1=COCC(=S)C(N2CCCC2)=N1", "% Inhibition": -16, "Z score": 3.11}
{"smiles": "Cc1cc(NCc2nc(C)cc(=O)[nH]2)nc(C2CC2)n1", "% Inhibition": 1, "Z score": -0.23}
{"smiles": "CCO[C@H]1[C@H](NC(=O)c2cnccc2C)c2ccccc2C12CCNCC2", "% Inhibition": 3, "Z score": -0.35}
{"smiles": "Cn1cccc1[C@@H](O)CCNC(=O)C(C)(C)C", "% Inhibition": -8, "Z score": 1.21}
